# Test results published in US20230227453A1 (priority 2020, published 2023).
# Tested on: Male Sprague Dawley rats
# Assay: Forced Swim Test (FST) (Procedure B)
# Parameters: key: A: Statistically significant mean decrease in immobility compared to vehicle control at 3 mg/kg or less; B: No statistically significant mean decrease in immobility compared to vehicle control at 3 mg/kg or less
# Details: second swim test ~24 hours after injection, 3 mg/kg or less, vs vehicle
# Protocol: Forced Swim Test (FST) (Procedure B). All FST experiments were conducted by Psychogenics Inc, Paramus, N.J. Male Sprague Dawley rats from Envigo (Indianapolis, Ind.) were obtained and housed 3 rats per cage following an IACUC approved protocol. All experiments were carried out at ambient temperatures (20 and 23° C.) under artificial lighting during the light-on part of the light/dark cycle in a Forced Swim chamber constructed of clear acrylic (height=40 cm; diameter=20.3 cm). Only one rat was placed in the swim chamber at a time for each swim test. The water was changed and the chamber cleaned between each animal. All rats were exposed to two swim sessions. The water depth was 16 cm in the first swim session and 30 cm in the second swim session, and the water temperature was maintained at 23±1° C. for all swim sessions. During the FST, animals undergo a 15 min swim session (pre-swim) lasted for 15 minutes, dried with paper towels, and returned to the home cage. […] The second swim test was video recorded for scoring. Body weights were measured on both days. Scoring of the second swim test was performed by trained technicians using a time sampling technique in which the animal in the video recorded test was viewed every 5 seconds and the behavior seen is noted. […]
smiles,measurement,value
"COc1ccc2c3c([nH]c2n1)CCN(C)CC3 [Example 1, 2-methoxy-7-methyl-5,6,7,8,9,10-hexahydropyrido[3′,2′:4,5]pyrrolo[2,3-d]azepine]",Decrease in immobilty,A
